In article PMC6771777:
These are yes or no findings as the source states them, for the method shown. Some binding calls cover weakened binding; strength is not graded here.

What was measured:
[1] = target: T1, Arabidopsis anaphase-promoting complex/cyclosome subunit 8 (AtAPC8) (Arabidopsis thaliana) (UniProt Q9STS3); test: two-hybrid; APC8 and APC8-D309N in pGBKT7 (Y2H Gold strain), APC10 and CDC20.1 in pGADT7 (Y187 strain); mated on YPDA 48 h; selected on DDO (-Leu -Trp) 48 h and on QDO (-Leu -Trp -His -Ade, with X-alpha-Gal) 6 d
T1 sequence: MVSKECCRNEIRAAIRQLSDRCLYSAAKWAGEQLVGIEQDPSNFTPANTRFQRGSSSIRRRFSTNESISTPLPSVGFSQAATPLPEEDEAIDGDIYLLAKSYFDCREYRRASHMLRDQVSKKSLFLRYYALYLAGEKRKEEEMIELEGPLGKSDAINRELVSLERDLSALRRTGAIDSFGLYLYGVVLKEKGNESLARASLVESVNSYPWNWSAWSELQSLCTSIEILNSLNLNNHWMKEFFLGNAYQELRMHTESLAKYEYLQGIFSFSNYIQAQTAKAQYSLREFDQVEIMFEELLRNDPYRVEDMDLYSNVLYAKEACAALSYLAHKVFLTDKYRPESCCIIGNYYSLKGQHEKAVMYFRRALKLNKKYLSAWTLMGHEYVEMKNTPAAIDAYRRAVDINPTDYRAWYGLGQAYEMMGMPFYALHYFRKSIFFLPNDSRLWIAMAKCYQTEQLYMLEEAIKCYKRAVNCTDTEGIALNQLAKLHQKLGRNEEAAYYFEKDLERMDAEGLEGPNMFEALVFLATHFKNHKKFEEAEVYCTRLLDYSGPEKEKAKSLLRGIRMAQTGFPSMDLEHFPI

[2] = target: T2, APC8-D309N (product of the apc8-1 allele) (Arabidopsis thaliana) (UniProt Q9STS3); test: as above
T2 sequence: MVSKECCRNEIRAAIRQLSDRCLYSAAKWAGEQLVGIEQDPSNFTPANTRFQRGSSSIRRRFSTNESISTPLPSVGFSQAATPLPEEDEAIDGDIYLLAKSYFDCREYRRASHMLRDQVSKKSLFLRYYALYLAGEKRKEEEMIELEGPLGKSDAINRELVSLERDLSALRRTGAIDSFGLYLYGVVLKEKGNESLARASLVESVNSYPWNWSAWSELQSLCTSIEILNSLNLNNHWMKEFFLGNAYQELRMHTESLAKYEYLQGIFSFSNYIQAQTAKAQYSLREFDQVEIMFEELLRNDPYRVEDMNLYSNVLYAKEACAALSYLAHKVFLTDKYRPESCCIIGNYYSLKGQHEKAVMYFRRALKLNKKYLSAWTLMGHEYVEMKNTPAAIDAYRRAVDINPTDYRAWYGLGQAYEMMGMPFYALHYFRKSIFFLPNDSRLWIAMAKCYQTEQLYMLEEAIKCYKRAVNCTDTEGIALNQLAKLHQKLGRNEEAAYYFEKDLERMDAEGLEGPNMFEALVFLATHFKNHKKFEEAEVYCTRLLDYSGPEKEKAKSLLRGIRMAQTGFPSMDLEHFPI

B1: Arabidopsis APC10 (AtAPC10) (protein, UniProt Q9ZPW2 1-192)
chain: MATESSESEEEGKISGGNYKLIIDDDLREMGKNAAWSVSSCKPGNGVTTLRDDNLETYWQSDGLQPHLINIQFQKKVKLQLVVLYVDFKLDESYTPSKISIRAGDGFHNLKEIKSVELVKPTGWVCLSLSGTDPRETFVNTFMLQIAILSNHLNGRDTHIRQIKVYGPRPNPIPHQPFQFTSMEFLTYSTLR
binding [1]: binds | binding [2]: binds

B2: Arabidopsis Cell Division Cycle 20.1 (AtCDC20.1) (protein, UniProt Q9SZA4 1-457)
chain: MDAGMNNTSSHYKTQARCPLQEHFLPRKPSKENLDRFIPNRSAMNFDYAHFALTEGRKGKDQTAAVSSPSKEAYRKQLAETMNLNHTRILAFRNKPQAPVELLPSNHSASLHQQPKSVKPRRYIPQTSERTLDAPDIVDDFYLNLLDWGSANVLAIALDHTVYLWDASTGSTSELVTIDEEKGPVTSINWAPDGRHVAVGLNNSEVQLWDSASNRQLRTLKGGHQSRVGSLAWNNHILTTGGMDGLIINNDVRIRSPIVETYRGHTQEVCGLKWSGSGQQLASGGNDNVVHIWDRSVASSNSTTQWLHRLEEHTSAVKALAWCPFQANLLATGGGGGDRTIKFWNTHTGACLNSVDTGSQVCSLLWSKNERELLSSHGFTQNQLTLWKYPSMVKMAELTGHTSRVLYMAQSPDGCTVASAAGDETLRFWNVFGVPETAKKAAPKAVSEPFSHVNRIR
binding [1]: binds | binding [2]: no binding

B3: Arabidopsis anaphase-promoting complex/cyclosome subunit 8 (AtAPC8) (protein, UniProt Q9STS3 1-579)
chain: MVSKECCRNEIRAAIRQLSDRCLYSAAKWAGEQLVGIEQDPSNFTPANTRFQRGSSSIRRRFSTNESISTPLPSVGFSQAATPLPEEDEAIDGDIYLLAKSYFDCREYRRASHMLRDQVSKKSLFLRYYALYLAGEKRKEEEMIELEGPLGKSDAINRELVSLERDLSALRRTGAIDSFGLYLYGVVLKEKGNESLARASLVESVNSYPWNWSAWSELQSLCTSIEILNSLNLNNHWMKEFFLGNAYQELRMHTESLAKYEYLQGIFSFSNYIQAQTAKAQYSLREFDQVEIMFEELLRNDPYRVEDMDLYSNVLYAKEACAALSYLAHKVFLTDKYRPESCCIIGNYYSLKGQHEKAVMYFRRALKLNKKYLSAWTLMGHEYVEMKNTPAAIDAYRRAVDINPTDYRAWYGLGQAYEMMGMPFYALHYFRKSIFFLPNDSRLWIAMAKCYQTEQLYMLEEAIKCYKRAVNCTDTEGIALNQLAKLHQKLGRNEEAAYYFEKDLERMDAEGLEGPNMFEALVFLATHFKNHKKFEEAEVYCTRLLDYSGPEKEKAKSLLRGIRMAQTGFPSMDLEHFPI
binding [1]: binds

B4: APC8-D309N (product of the apc8-1 allele) (protein, UniProt Q9STS3 1-579)
chain: MVSKECCRNEIRAAIRQLSDRCLYSAAKWAGEQLVGIEQDPSNFTPANTRFQRGSSSIRRRFSTNESISTPLPSVGFSQAATPLPEEDEAIDGDIYLLAKSYFDCREYRRASHMLRDQVSKKSLFLRYYALYLAGEKRKEEEMIELEGPLGKSDAINRELVSLERDLSALRRTGAIDSFGLYLYGVVLKEKGNESLARASLVESVNSYPWNWSAWSELQSLCTSIEILNSLNLNNHWMKEFFLGNAYQELRMHTESLAKYEYLQGIFSFSNYIQAQTAKAQYSLREFDQVEIMFEELLRNDPYRVEDMNLYSNVLYAKEACAALSYLAHKVFLTDKYRPESCCIIGNYYSLKGQHEKAVMYFRRALKLNKKYLSAWTLMGHEYVEMKNTPAAIDAYRRAVDINPTDYRAWYGLGQAYEMMGMPFYALHYFRKSIFFLPNDSRLWIAMAKCYQTEQLYMLEEAIKCYKRAVNCTDTEGIALNQLAKLHQKLGRNEEAAYYFEKDLERMDAEGLEGPNMFEALVFLATHFKNHKKFEEAEVYCTRLLDYSGPEKEKAKSLLRGIRMAQTGFPSMDLEHFPI
binding [2]: binds
